Measurements as given in patent US8673841B2 (Ferring B.V., priority 2008, dated 2014).
Not every detail of the peptide structures is certain; ends, links or a residue may be inferred. Starred links: 1 amine or outer side, 2 acyl side, 3 side chain; linkers in the order of their positions; H or OH if unused. Positions of bridges follow the written chain, without caps; N, C: chain ends. Non-standard residues stand in square brackets, D forms with d. Residues, ends and D or L forms follow the SMILES beside them. Phe(4-Et) = CCc1ccc(C[C@H](N)C(=O)O)cc1; X1 = O=C(CN(Cc1ccc(F)c(F)c1)[*:1])[*:2]; cisHyp = O=C(O)[C@@H]1C[C@H](O)CN1; Hyp = O=C(O)[C@@H]1C[C@@H](O)CN1; NPentylGly = CCCCCNCC(=O)O; hCys = N[C@@H](CCS)C(=O)O; X2 = O=C(CCC[*:2])[*:1]; X3 = O=C(CC[*:2])[*:1]; NPrGly = CCCNCC(=O)O

Legend:
[1] = biological target: T1, hOT receptor (Homo sapiens, UniProt P30559); assay: transcriptional reporter gene assay (luciferase), agonist activity on hOT receptor in transfected CHO cells; conditions: read-out: EC50 hOT receptor, geometric mean, at least three independent experiments, 5 h exposure
T1 sequence (P30559 1-389): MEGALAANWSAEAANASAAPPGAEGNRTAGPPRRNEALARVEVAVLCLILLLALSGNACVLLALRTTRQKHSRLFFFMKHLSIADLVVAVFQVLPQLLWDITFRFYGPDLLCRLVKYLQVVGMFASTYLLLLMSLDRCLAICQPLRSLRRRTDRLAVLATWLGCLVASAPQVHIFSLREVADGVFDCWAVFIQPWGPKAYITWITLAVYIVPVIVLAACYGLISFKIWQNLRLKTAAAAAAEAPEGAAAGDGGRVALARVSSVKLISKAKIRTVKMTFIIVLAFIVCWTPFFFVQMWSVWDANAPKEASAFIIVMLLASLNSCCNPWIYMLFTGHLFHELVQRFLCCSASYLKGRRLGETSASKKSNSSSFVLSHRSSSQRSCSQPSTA

[2] = biological target: human vasopressin (hV2) receptor (Homo sapiens, UniProt P30518); assay: luciferase-based transcriptional reporter gene assay expressing the human vasopressin (hV2) receptor; conditions: read-out: EC50 hV2 receptor, geometric mean
Chain of human vasopressin (hV2) receptor (P30518 whole entry): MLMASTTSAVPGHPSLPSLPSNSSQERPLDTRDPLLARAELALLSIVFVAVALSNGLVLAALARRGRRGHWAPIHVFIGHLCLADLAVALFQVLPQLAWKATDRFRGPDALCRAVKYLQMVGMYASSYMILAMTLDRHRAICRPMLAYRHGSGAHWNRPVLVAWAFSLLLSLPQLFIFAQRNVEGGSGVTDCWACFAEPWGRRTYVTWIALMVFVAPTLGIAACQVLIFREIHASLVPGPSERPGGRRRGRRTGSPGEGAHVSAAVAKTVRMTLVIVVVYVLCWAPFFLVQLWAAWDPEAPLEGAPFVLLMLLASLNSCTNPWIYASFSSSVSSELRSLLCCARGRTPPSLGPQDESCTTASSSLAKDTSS

CCc1ccc(C[C@@H]2NC(=O)CCCSC[C@@H](C(=O)N3C[C@H](OC)C[C@H]3C(=O)N[C@@H](CC(C)C)C(=O)NCC(N)=O)NC(=O)[C@H](CC(N)=O)NC(=O)[C@H](CCC(N)=O)NC(=O)[C@H]([C@@H](C)CC)NC2=O)cc1 [Compound 3] ([Phe(4-Et)]IQNC[Hyp](Me)LG-NH2; linker N-5 via X2 (inferred); C-terminus assumed)
EC50 [1]: 0.207 nM
EC50 [2]: 447 nM

CCc1ccc(C[C@@H]2NC(=O)CCSCC[C@@H](C(=O)N3C[C@@H](O)C[C@H]3C(=O)N[C@@H](CC(C)C)C(=O)NCC(N)=O)NC(=O)[C@H](CC(N)=O)NC(=O)[C@H](CCC(N)=O)NC(=O)[C@H]([C@@H](C)CC)NC2=O)cc1 [Compound 4] ([Phe(4-Et)]IQN[hCys][cisHyp]LG-NH2; linker N-5 via X3 (inferred); C-terminus assumed)
EC50 [1]: 0.033 nM
EC50 [2]: 17.7 nM

CCCN(CC(=O)N[C@@H](CC(C)C)C(=O)NCC(N)=O)C(=O)[C@@H]1CSCCCC(=O)N[C@@H](Cc2ccccc2)C(=O)N[C@@H]([C@@H](C)CC)C(=O)N[C@@H](CCC(N)=O)C(=O)N[C@@H](CC(N)=O)C(=O)N1 [Compound 37] (FIQNC[NPrGly]LG-NH2; linker N-5 via X2 (inferred); C-terminus assumed)
EC50 [1]: 0.228 nM
EC50 [2]: 442 nM

CCCN(CC(=O)N[C@@H](CC(C)C)C(=O)NCC(N)=O)C(=O)[C@@H]1CCSCCC(=O)N[C@@H](Cc2ccccc2)C(=O)N[C@@H]([C@@H](C)CC)C(=O)N[C@@H](CCC(N)=O)C(=O)N[C@@H](CC(N)=O)C(=O)N1 [Compound 38] (FIQN[hCys][NPrGly]LG-NH2; linker N-5 via X3 (inferred); C-terminus assumed)
EC50 [1]: 0.271 nM
EC50 [2]: 227 nM

CCCCCN(CC(=O)N[C@@H](CC(C)C)C(=O)NCC(N)=O)C(=O)[C@@H]1CSCCCC(=O)N[C@@H](Cc2ccccc2)C(=O)N[C@@H]([C@@H](C)CC)C(=O)N[C@@H](CCC(N)=O)C(=O)N[C@@H](CC(N)=O)C(=O)N1 [Compound 39] (FIQNC[NPentylGly]LG-NH2; linker N-5 via X2 (inferred); C-terminus assumed)
EC50 [1]: 0.254 nM
EC50 [2]: 2060 nM

CC[C@H](C)[C@@H]1NC(=O)[C@H](Cc2ccc(O)cc2)NC(=O)CCCSC[C@@H](C(=O)N(CC(=O)N[C@@H](CC(C)C)C(=O)NCC(N)=O)Cc2ccc(F)c(F)c2)NC(=O)[C@H](CC(N)=O)NC(=O)[C@H](CCC(N)=O)NC1=O [Compound 43] (YIQNC[X1]LG-NH2; linker N-5 via X2 (inferred); C-terminus assumed)
EC50 [1]: 0.104 nM
EC50 [2]: 124 nM
